{
  "source": "the supplement of paper PMC8728848",
  "binders": {"B1": {"name": "RBMC1 (Vibrio cholerae) (protein)", "chain": "QQSQRVVTADNLMYLRSGFAIDAIGTTVNNLVGGPVQGTNGGVLRAPIALDQLQSVEVTSGLYNWGGYHIVAIKFTMKDGSSVLLGSTHYASNKKVETYTVPQGKRIKQINVWTGGWLVEGFQFVY"}},
  "experiment_in_all_cases": "glycan array binding signal (z-score within array); higher = stronger binding",
  "conditions_in_all_cases": "glycan notation: IUPAC condensed, linker removed",
  "key": {"Glc(b1-6)Glc": {"molecular_target": "Glc(b1-6)Glc", "how_it_was_run": "(§1)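 From the Consortium for Functional Glycomics database, 3228 arrays were curated, keeping only those whose protein sequence was available. Binding is given as a within-array Z-score averaged across arrays sharing a protein sequence and across linkers. Negative Z-scores can be read as non-binding.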"}, "GlcA(b1-3)Gal": {"molecular_target": "GlcA(b1-3)Gal", "how_it_was_run": "as §1"}, "GlcA(b1-3)GlcNAc": {"molecular_target": "GlcA(b1-3)GlcNAc", "how_it_was_run": "as §1"}, "GlcA(b1-6)Gal": {"molecular_target": "GlcA(b1-6)Gal", "how_it_was_run": "as §1"}, "[1]": {"molecular_target": "GlcA3S(b1-3)Gal(b1-4)GlcNAc(b1-2)Man", "how_it_was_run": "as §1"}, "[2]": {"molecular_target": "GlcA3S(b1-3)Gal(b1-4)GlcNAc(b1-3)Gal(b1-4)Glc", "how_it_was_run": "as §1"}, "[3]": {"molecular_target": "GlcNAc(a1-3)Gal(b1-4)GlcNAc", "how_it_was_run": "as §1"}, "[4]": {"molecular_target": "GlcNAc(a1-4)Gal(b1-3)GlcNAc", "how_it_was_run": "as §1"}, "[5]": {"molecular_target": "GlcNAc(a1-4)Gal(b1-4)GalNAc", "how_it_was_run": "as §1"}, "[6]": {"molecular_target": "GlcNAc(a1-4)Gal(b1-4)GlcNAc", "how_it_was_run": "as §1"}, "[7]": {"molecular_target": "GlcNAc(a1-4)Gal(b1-4)GlcNAc(b1-3)Gal(b1-4)Glc", "how_it_was_run": "as §1"}, "[8]": {"molecular_target": "GlcNAc(a1-4)Gal(b1-4)GlcNAc(b1-3)Gal(b1-4)GlcNAc", "how_it_was_run": "as §1"}, "[9]": {"molecular_target": "GlcNAc(a1-4)Gal(b1-4)GlcNAc(b1-3)Gal(b1-4)GlcNAc(b1-3)Gal(b1-4)GlcNAc", "how_it_was_run": "as §1"}, "[10]": {"molecular_target": "GlcNAc(a1-4)Gal(b1-4)GlcNAc(b1-3)Gal(b1-4)[Fuc(a1-3)]GlcNAc(b1-3)Gal(b1-4)[Fuc(a1-3)]GlcNAc", "how_it_was_run": "as §1"}, "[11]": {"molecular_target": "GlcNAc(a1-6)Gal(b1-4)GlcNAc", "how_it_was_run": "as §1"}, "[12]": {"molecular_target": "GlcNAc(b1-2)Gal(b1-3)GalNAc", "how_it_was_run": "as §1"}, "[13]": {"molecular_target": "GlcNAc(b1-2)Man(a1-3)[GlcNAc(b1-2)Man(a1-6)]Man(b1-4)GlcNAc(b1-4)GlcNAc", "how_it_was_run": "as §1"}, "[14]": {"molecular_target": "GlcNAc(b1-2)Man(a1-3)[GlcNAc(b1-2)Man(a1-6)]Man(b1-4)GlcNAc(b1-4)[Fuc(a1-6)]GlcNAc", "how_it_was_run": "as §1"}, "[15]": {"molecular_target": "GlcNAc(b1-2)Man(a1-3)[GlcNAc(b1-4)][GlcNAc(b1-2)Man(a1-6)]Man(b1-4)GlcNAc(b1-4)GlcNAc", "how_it_was_run": "as §1"}, "[16]": {"molecular_target": "GlcNAc(b1-2)Man(a1-3)[GlcNAc(b1-4)][GlcNAc(b1-2)Man(a1-6)]Man(b1-4)GlcNAc(b1-4)[Fuc(a1-6)]GlcNAc", "how_it_was_run": "as §1"}, "[17]": {"molecular_target": "GlcNAc(b1-2)[GlcNAc(b1-4)]Man(a1-3)[GlcNAc(b1-2)Man(a1-6)]Man(b1-4)GlcNAc(b1-4)GlcNAc", "how_it_was_run": "as §1"}, "[18]": {"molecular_target": "GlcNAc(b1-2)[GlcNAc(b1-4)]Man(a1-3)[GlcNAc(b1-4)][GlcNAc(b1-2)Man(a1-6)]Man(b1-4)GlcNAc(b1-4)GlcNAc", "how_it_was_run": "as §1"}},
  "note": "The list shows a part of the results.",
  "data": [
    {"binder": "B1", "values": [
      {"measurement": "glycan array binding signal (z-score)", "setting": "Glc(b1-6)Glc", "value": -0.413},
      {"measurement": "glycan array binding signal (z-score)", "setting": "GlcA(b1-3)Gal", "value": -0.211},
      {"measurement": "glycan array binding signal (z-score)", "setting": "GlcA(b1-3)GlcNAc", "value": -0.377},
      {"measurement": "glycan array binding signal (z-score)", "setting": "GlcA(b1-6)Gal", "value": -0.35},
      {"measurement": "glycan array binding signal (z-score)", "setting": "[1]", "value": -0.37},
      {"measurement": "glycan array binding signal (z-score)", "setting": "[2]", "value": -0.217},
      {"measurement": "glycan array binding signal (z-score)", "setting": "[3]", "value": -0.39},
      {"measurement": "glycan array binding signal (z-score)", "setting": "[4]", "value": -0.355},
      {"measurement": "glycan array binding signal (z-score)", "setting": "[5]", "value": -0.014},
      {"measurement": "glycan array binding signal (z-score)", "setting": "[6]", "value": -0.349},
      {"measurement": "glycan array binding signal (z-score)", "setting": "[7]", "value": -0.284},
      {"measurement": "glycan array binding signal (z-score)", "setting": "[8]", "value": -0.142},
      {"measurement": "glycan array binding signal (z-score)", "setting": "[9]", "value": -0.335},
      {"measurement": "glycan array binding signal (z-score)", "setting": "[10]", "value": -0.01},
      {"measurement": "glycan array binding signal (z-score)", "setting": "[11]", "value": -0.273},
      {"measurement": "glycan array binding signal (z-score)", "setting": "[12]", "value": -0.185},
      {"measurement": "glycan array binding signal (z-score)", "setting": "[13]", "value": 1.81},
      {"measurement": "glycan array binding signal (z-score)", "setting": "[14]", "value": 0.419},
      {"measurement": "glycan array binding signal (z-score)", "setting": "[15]", "value": -0.075},
      {"measurement": "glycan array binding signal (z-score)", "setting": "[16]", "value": -0.214},
      {"measurement": "glycan array binding signal (z-score)", "setting": "[17]", "value": 0.957},
      {"measurement": "glycan array binding signal (z-score)", "setting": "[18]", "value": -0.109}
    ]}
  ]
}
